Hit rate of the full screen: of about 46,000 compounds, about 60 (0.1%) were called active. Another 3% or so got no clear call; they are omitted. Calls follow the shape of the dose curve; as a rule, active = well fitted inhibition curve with a large enough effect; inconclusive = small, poorly fitted or top-dose-only effect; inactive = no such curve, though single readings can be large or run the other way. The list shows a part of the results.
Assay: Primary qHTS assay for Inhibitors of ovarian cancer metastasis using an organotypic tumor microenvironment (TME) model. Also: nearly all actives have a fitted effect of over 65% in size.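 As to activity change, negative = inhibition: plate controls were DMSO wells for no effect and tomatine positive control wells for full effect.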
Conditions: SKOV3ip1-GFP adhesion/invasion on 3D omental model, fluorescence; series mostly up to 45.8 µM; activity change, negative = inhibition: at the top concentration
Outline: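 A 3D layer of primary human omental fibroblasts, mesothelial cells, fibronectin and collagen I, grown 48 hr, received SKOV3ip1-GFP cells in serum-free medium plus compounds at 0.36-46 umol/L. After 2 hr RT and 16 hr 37 C, fixed adherent GFP cells were counted; normalized to DMSO and tomatine.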

Structure (SMILES)	activity change, negative = inhibition	outcome
CN(C)c1ccc(CNC(=O)CN2C(=O)C3CCCCN3c3ccc(C(=O)N4CCCC4)cc32)cc1 (stereo not given)	inactive: 6.35%	
O=C(CCc1ccccc1)NC1CC(=O)N(c2cccc(F)c2)C1 (stereo not given)	inactive: 3.11%	
COc1ccccc1C(=O)n1nc(-c2ccccc2)nc1NCc1ccc(Cl)cc1		inactive
CCC(=O)N1CCc2cc(S(=O)(=O)NC(CC(C)C)C(=O)Nc3cccc(C)c3C)ccc21 (stereo not given)	inactive: -9.09%	
O=C(CCC1N=C2c3ccccc3N=C(SCc3ccc(Cl)cc3)N2C1=O)NCc1cccs1 (stereo not given)	inactive: -2.73%	
COc1ccc(CCNc2ncnc3c2cnn3-c2ccc(C)c(Cl)c2)cc1	inactive: 5.03%	
Cc1ccc(NS(=O)(=O)c2ccc3oc(=O)c4ncn(C)c4c3c2)cc1C	inactive: -7.28%	
Cc1ccc(N2CCN(C(=O)c3cccn4c(=O)c5ccc(Cl)cc5nc34)CC2C)cc1 (stereo not given)	inactive: 3.29%	
Cc1ccc(S(=O)(=O)C(CNC(=O)C(=O)NCCc2ccc(Cl)cc2)c2ccco2)cc1 (stereo not given)	inactive: 24.6%	
CCC(C)NC(=O)c1cc2n(n1)CCCN(Cc1ccc(C)cc1)C2=O (stereo not given)	inactive: 3.87%	
COc1ccc(CCNS(=O)(=O)c2c(C)nc3sccn3c2=O)cc1OC	inactive: -4.07%	
O=C(Cc1ccc(F)cc1)NCCc1csc2nc(-c3ccccc3F)nn12	inactive: -3.64%	
Cc1c2cnn(CC(=O)NCc3ccc(Cl)cc3)c(=O)c2c(C)n1Cc1ccc(F)cc1	inactive: 1.17%	
CCn1cc(C(=O)N2CCN(c3ccccc3)CC2)c(=O)c2cc(S(=O)(=O)N(C)C)ccc21	inactive: 16.5%	
COc1ccc(C(CNC(=O)c2oc3cc(C)c(C)cc3c2C)N2CCCCC2)cc1 (stereo not given)	inactive: -9.98%	
Cc1ccc(Nc2nc(N)nc(CSc3nc4ccccc4s3)n2)cc1		inactive
Cc1cc(C)cc(NC(=O)CSc2ccc(-c3cccs3)nn2)c1	inactive: -2.29%	
Cc1ccccc1Nc1nn2c(=O)c3ccc(C(=O)NCc4cccs4)cc3nc2s1		inactive
Cc1cc(NS(=O)(=O)c2ccc(NC(=O)COc3ccccc3Br)cc2)no1	inactive: 8.49%	
CCOC(=O)c1c(N)n(-c2ccc(CC)cc2)c2nc3ccccc3nc12		inactive
CCOc1ccccc1NS(=O)(=O)c1ccc(N2CCCCS2(=O)=O)cc1	inactive: 0.972%	
O=C(NCCc1csc(-c2ccc(C(F)(F)F)cc2)n1)C(=O)Nc1ccc(F)c(Cl)c1	inactive: -0.457%	
COc1ccc(S(=O)(=O)n2nc(C)c(S(=O)(=O)N3CCCCCC3)c2C)cc1C		inactive
CN1CCN(c2nc3c(S(=O)(=O)c4ccc(Cl)cc4)nnn3c3ccsc23)CC1	inactive: 2.57%	

Structure (SMILES)	activity change, negative = inhibition	outcome
CC(=O)Nc1ccc(C)cc1-c1nc2ccccc2n(CC(=O)c2ccc(C)c(C)c2)c1=O	inactive: -3.5%	
CCc1ccc(NC(=O)Cn2c(=O)n(-c3ccccc3C)c(=O)c3c2c2cc(OC)ccc2n3C)cc1	inactive: 1.99%	
Cc1nc(-c2ccc(F)cc2)sc1CCNC(=O)c1cccs1	inactive: -8.58%	
Cc1ccc(N(CC(=O)N2CCN(c3ccccc3)CC2)S(=O)(=O)c2c(C)noc2C)cc1	inactive: -8.3%	
Cc1ccc(C)c(NC(=O)Cn2c(SCC(=O)NCc3ccccc3)nc3ccccc32)c1	inactive: -14.4%	
O=C(CN1C(=O)CSc2ccc(S(=O)(=O)N3CCOCC3)cc21)NCCCN1CCCCC1		inactive
CC(C)Oc1ccc(C(=O)NCC(c2ccc(N(C)C)cc2)N2CCc3ccccc32)cc1 (stereo not given)	inactive: 3.81%	
Cc1ccc(-c2noc(-c3nnn(CC(=O)Nc4ccc(C)c(Cl)c4)c3N)n2)cc1	inactive: -6.39%	
CCOc1ccc(N(CC(=O)Nc2ccc(OC)cc2)S(=O)(=O)c2ccc(Cl)cc2)cc1		inactive
CCN1CCN(C(c2ccccc2Cl)c2sc3nc(-c4ccco4)nn3c2O)CC1 (stereo not given)	inactive: -1.04%	
CCOC(=O)c1[nH]c2c(c1Cc1ccccc1)C(=O)CC(c1ccccc1)C2 (stereo not given)		inactive
CCOc1ccc(NC(=O)Cn2nc3c(cc2=O)CC(C)CC3)cc1 (stereo not given)	inactive: 4.23%	
CCOC(=O)c1ccccc1NC(=O)N1CCC(CN2CCOCC2)CC1		inactive
Cc1ccc2c(c1)cc1c(=O)n(Cc3ccccc3Cl)nc(C)n12		inactive
CCn1c(=O)c2sccc2n2c(CCC(=O)Nc3ccc(F)cc3)nnc12	inactive: -4.24%	
COc1ccc2c(c1)c(N1CCCC1=O)c(C(=O)Nc1cc(C)c(Cl)cc1OC)n2C	inactive: -9.61%	
CCN(c1ccccc1)S(=O)(=O)c1nnc(NC(=O)C2CCCCC2)s1	inactive: -2.45%	
O=C(Nc1ccc(Br)cc1)c1cc(S(=O)(=O)NC2CCCC2)ccc1F	inactive: 3.27%	
O=C(CCSCCc1ccccn1)Nc1ccc(Cl)cc1	inactive: 0.898%	
Cc1ccc2c(C)c(C(=O)N(Cc3ccc(N(C)C)cc3)Cc3ccco3)oc2c1C	inactive: 0.75%	
Cc1ccc(C)c(Cn2c(=O)n(-c3ccccc3)c(=O)c3c4c(sc32)CCCC4)c1	inactive: -18.5%	
Cc1cc2oc(=O)c(CC(=O)O)c(C)c2c2occ(-c3ccccc3)c12	inactive: -0.551%	
COc1ccc(CCN2C(=O)N(c3cccc(OC)c3)C(=O)C2CC(=O)Nc2ccccc2)cc1 (stereo not given)	inactive: 11%	
CCOC(=O)c1c(C)[nH]c(CCC(=O)NCc2cc(OC)c(OC)c(OC)c2)c1C	inactive: -6.4%	

Structure (SMILES)	activity change, negative = inhibition	outcome
CCOC(=O)Cc1ccc(NC(=O)NC(C)c2c(-n3cccc3)sc(C)c2C)cc1 (stereo not given)		inactive
Oc1c(C(c2ccccc2)N2CCCC2)sc2nc(-c3ccco3)nn12 (stereo not given)	inactive: -6.16%	
COc1ccc(-c2onc(C)c2C)cc1S(=O)(=O)NCCc1ccccc1	inactive: 4.07%	
COc1ccc(CNC(=O)CN2C(=O)CCn3nc(-c4cn(C)c5ccccc45)cc32)cc1	inactive: 7.52%	
CCNC(=O)CC1C(=O)N(c2ccc(C)cc2)C(=O)N1CCOC (stereo not given)	inactive: -8.92%	
CCOC(=O)c1c(S(=O)(=O)N2CCC(C(=O)Nc3ccc(C)c(Cl)c3)CC2)c(C)n(C)c1C	inactive: 1.89%	
COc1nnc(-c2ccc(N3CCCCC3)c(NC(=O)c3ccc(C)cc3)c2)c2ccccc12	inactive: 28.6%	
O=C(c1cccc([N+](=O)[O-])c1)N1CCN(c2ccc(Nc3ccccc3)nn2)CC1		inactive
O=C(c1ccc2c(c1)N(Cc1cccc(Cl)c1)C(=O)c1ccccc1S2=O)N1CCC(Cc2ccccc2)CC1 (stereo not given)	inactive: 2.82%	
COc1ccc(OC)c(NC(=O)CSC2=Nc3ccccc3C3=NC(CC(=O)NCCc4ccccc4)C(=O)N23)c1 (stereo not given)	inactive: 5.59%	
CCOc1cccc(CNCCCSc2nnnn2C)c1	inactive: 3.81%	
CCOc1ccc(NC(=O)CCCn2c(C)c3cnn(-c4ccccc4)c(=O)c3c2C)cc1		inactive
O=S(=O)(c1ccc(-c2cnc(C3CC3)o2)cc1)N1CCN(c2ccc(F)cc2)CC1	inactive: 0.82%	
CCn1nc(C)c2c(-c3ccccc3)cc(=O)n(C(C)C(=O)NCCc3ccc(Cl)cc3)c21 (stereo not given)		inactive
CCc1ccc(-c2cn3nc(CC)sc3n2)cc1	inactive: -22.2%	
COc1ccccc1CNC(=O)Cn1cc2c(n1)-c1c(oc(C(=O)N3CCOCC3)c1C)CC2	inactive: -0.148%	
COC(=O)c1sccc1S(=O)(=O)N(CC(=O)Nc1cccc(C)c1C)c1ccc(C)c(C)c1	inactive: -42.9%	
Cc1cccc(NC(=O)CSC2=Nc3ccccc3C3=NC(CCC(=O)NCc4ccco4)C(=O)N23)c1 (stereo not given)	inactive: 19.7%	
COc1cc(OC)c(NC(=O)Cn2ncn3c(cc4cc(C)ccc43)c2=O)cc1Cl	inactive: 2.6%	
Cn1cc(C=C2C(=O)Nc3cccnc32)c2ccccc21	inactive: 3.86%	
CC(C)(C)OC(=O)N1CCC(c2c(C(=O)N3CCN(Cc4ccccc4)CC3)cnn2-c2cccc(Cl)c2)CC1	inactive: -4.96%	
COc1ccc(Cn2c(CO)cnc2SCc2ccc(C)cc2)cc1	inactive: 4.44%	
CN(C)S(=O)(=O)N1CCC(n2c(C(F)(F)F)nc3cccnc32)CC1		inactive
COc1ccc2c(c1)c1c(c(=O)n(CCc3ccccc3)c(=O)n1Cc1cccc(F)c1)n2C		inactive

Structure (SMILES)	activity change, negative = inhibition	outcome
CCSc1nc2ccccc2c(OCc2ccc(Cl)cc2)c1C(=O)OC	inactive: 2.58%	
Cc1ccc(-c2onc(C)c2C)cc1S(=O)(=O)Nc1ccccn1	inactive: 6.08%	
CC(C)CN(CCNC(=O)CCN1N=C(c2ccccc2)CCC1=O)CC(C)C		inactive
COc1ccc2c(C)c(CC(=O)NCc3ccccc3Cl)c(=O)oc2c1OC	inactive: 6.27%	
COc1ccc(-c2nc3cc(NC(=O)COc4ccccc4C)ccc3o2)cc1	inactive: 0.408%	
CC(=O)N1CCC(N(CCCOC(C)C)C(=O)Nc2ccc(C)c(C)c2)CC1	inactive: 3.8%	
Cc1ccc(NC(=O)c2oc3ccc(S(=O)(=O)N4CCC5(CC4)OCCO5)cc3c2C)cc1Cl	inactive: -5.41%	
CCc1cccc(C)c1NC(=O)CSc1nc2ccccc2nc1Cc1ccccc1		inactive
COc1ccc(CCNC(=O)CN(c2ccccc2)S(=O)(=O)N(C)C)cc1OC		inactive
CCOC(=O)C(C)NC(=O)c1c2c(nc3ccccc13)C(=O)N(C1CCCCC1)C2 (stereo not given)	inactive: -9.99%	
COC(=O)CC1Oc2ccccc2-n2cc(-c3ccc(F)cc3)nc21 (stereo not given)		inactive
COc1cc(C(c2c(C)[nH][nH]c2=O)c2c(C)[nH][nH]c2=O)ccc1OC(=O)c1ccccc1OC	inactive: 4.35%	
O=C(CN1C(=O)CCSc2ccc(S(=O)(=O)N3CCCC3)cc21)Nc1cccc(F)c1	inactive: 27.9%	
CCc1c(C)sc2c1CCN(Cc1ccc(C#N)cc1)C2c1ccccc1 (stereo not given)	inactive: -1.17%	
CCOC(=O)c1c(NC(=O)c2cc(-c3ccc(OC)c(OC)c3)on2)sc2c1CCCC2		inactive
Cc1cccc(N(C)S(=O)(=O)c2cc(-c3cnc(C4CC4)o3)ccc2C)c1	inactive: -4.07%	
COc1ccc(Nc2nn3c(=O)c4cc5c(cc4nc3s2)OCO5)c(OC)c1	inactive: 4.08%	
Cc1ccc(Cl)cc1-n1nnc(-c2nc(-c3ccc4c(c3)OCO4)no2)c1C		inactive
CCc1ccc(C2c3c(-c4ccccc4O)n[nH]c3C(=O)N2Cc2cccnc2)cc1 (stereo not given)	inactive: 2.85%	
CCC(=O)N1c2ccc(S(=O)(=O)CCC(=O)Nc3ccc(OC)cc3OC)cc2CC1C (stereo not given)		inactive
O=C(CCNS(=O)(=O)c1ccc2c(c1)CCN2C(=O)C1CC1)N1CCN(c2cccc(Cl)c2)CC1		inactive
CC(C)CCNC(=O)C1CCN(C(=O)c2cc3sccc3n2Cc2ccc(Cl)cc2)CC1	inactive: 4.4%	
CCc1ccc(-n2nc(CO)c(C(=O)NC)n2)cc1	inactive: 6.82%	
